We go through 112 sequences from the supplement of paper PMC3724861.

This is one part of the list. Bounds are passed on as bounds.

In this experiment the test system is T1, Caupolican (Caup) homeodomain DNA-binding domain.
T1 sequence: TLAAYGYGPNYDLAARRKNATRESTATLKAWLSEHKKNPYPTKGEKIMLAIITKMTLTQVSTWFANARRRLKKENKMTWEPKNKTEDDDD
The experiment can be described thus: PBM E-score (8-mer, recovered from the published 9-mer minima) (E-score (dimensionless, -0.5 to 0.5)); Drosophila protein; higher = stronger relative binding preference, active = 0.31 or more. Put shortly: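 An enrichment score, with higher meaning stronger, expresses relative binding preference for each short DNA word. The protein used was Caup's homeodomain DNA-binding domain (residues 214-303), produced by in vitro transcription and translation and tested at 100 nM on custom-designed protein binding microarrays. The 8-mer values were recovered from published 9-mer scores, each equal to the lower of its two constituent 8-mer scores.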
For the sequence GTCCACAA, the “PBM E-score” value was inactive: 0.0838.

Turning to CCGCCTAC, the “PBM E-score” value is inactive: -0.103.

For the sequence ACCTAATG, the “PBM E-score” value is inactive: -0.0525.

As for CCAAGAAC, the “PBM E-score” value was inactive: -0.0553.

For AGTTCAAT, the “PBM E-score” value is inactive: 0.0193.

Take AAGTAATA: the “PBM E-score” value was inactive: 0.134.

In the case of AGAGGATC, the “PBM E-score” value was inactive: -0.0232.

Turning to TCCTGAGA, the “PBM E-score” value was inactive: -0.00828.

Turning to TAATCGTA, the “PBM E-score” value was inactive: 0.155.

Take CCCAAAAA: the “PBM E-score” value is inactive: -0.0679.

ACCAGCGG: the “PBM E-score” value is inactive: -0.174.

On to ACCTTGCA, for which the “PBM E-score” value is inactive: 0.00259.

For CCGTGATC, the “PBM E-score” value is inactive: -0.091.

As for CTTGTTTA, the “PBM E-score” value is inactive: 0.254.

With ACTTTCCC, the “PBM E-score” value is inactive: -0.0936.

Take CAATCTTA: the “PBM E-score” value was at least 0.125.

Regarding AACGCGGT, the “PBM E-score” value was inactive: 0.0188.

In the case of GTATGCCA, the “PBM E-score” value was inactive: -0.0778.

As for ATGGCCAG, the “PBM E-score” value is inactive: -0.0226.

As to AGCGAAAA, the “PBM E-score” value is at least 0.00372.

Consider TCAACGAA, for which the “PBM E-score” value was inactive: 0.0771.

Turning to AAAGAGAA, the “PBM E-score” value is inactive: -0.1.

Take ACCAACAA: the “PBM E-score” value is inactive: 0.156.

On to CCCTTTCC, for which the “PBM E-score” value was inactive: -0.232.

For CCTCAAGA, the “PBM E-score” value was inactive: -0.0635.

As to AGGTAACT, the “PBM E-score” value was inactive: 0.0502.

For the sequence GAAATATC, the “PBM E-score” value was inactive: 0.0839.

Regarding GCCCAAAC, the “PBM E-score” value is inactive: -0.144.

As for AGTATGTC, the “PBM E-score” value is inactive: 0.243.

Consider AAGCTTGA, for which the “PBM E-score” value was inactive: -0.0734.

Consider AAGTCAGA, for which the “PBM E-score” value is inactive: -0.0825.

For the sequence CACGGTCA, the “PBM E-score” value was inactive: 0.0659.

On to ACCTACTC, for which the “PBM E-score” value was inactive: 0.0495.

AGCCGGCC: the “PBM E-score” value was inactive: -0.235.

Take CTTAACCC: the “PBM E-score” value is inactive: -0.154.

ACTTGCAG: the “PBM E-score” value was inactive: -0.00481.

For CGCCAGTC, the “PBM E-score” value was inactive: -0.143.

Turning to ATAAGCTA, the “PBM E-score” value was inactive: 0.0835.

As for CGTAATTC, the “PBM E-score” value is inactive: 0.0236.

Regarding AACTTATG, the “PBM E-score” value was inactive: 0.123.

On to CACCCAAC, for which the “PBM E-score” value is inactive: -0.0696.

With ATTGCGTC, the “PBM E-score” value was inactive: -0.0334.

ACGACGAA: the “PBM E-score” value is inactive: 0.0874.

As for ACTCTACT, the “PBM E-score” value is inactive: 0.081.

In the case of CCCCCAGA, the “PBM E-score” value is inactive: -0.337.

Consider AGAGAAGA, for which the “PBM E-score” value was inactive: -0.0577.

Regarding TTGAAAAA, the “PBM E-score” value is inactive: 0.0864.

With AAAGTCTT, the “PBM E-score” value is inactive: 0.0137.

For the sequence CTCCTACC, the “PBM E-score” value was inactive: -0.143.

As to TACCCGTA, the “PBM E-score” value is inactive: 0.0829.

As to CAGCCTGG, the “PBM E-score” value was inactive: -0.164.

Consider ATATCGGA, for which the “PBM E-score” value was inactive: 0.0909.

In the case of GTACGGAA, the “PBM E-score” value was inactive: 0.0512.

For the sequence CTAATGTC, the “PBM E-score” value was inactive: 0.163.

With ATATCCGC, the “PBM E-score” value was inactive: -0.0643.

For the sequence CAAAAAGG, the “PBM E-score” value was inactive: -0.0727.

Consider AGTTGTTC, for which the “PBM E-score” value was inactive: 0.261.

Take AGACTGTG: the “PBM E-score” value is inactive: 0.0481.

As to AGGCCATC, the “PBM E-score” value is inactive: -0.0892.

Turning to TACGGGGA, the “PBM E-score” value is inactive: -0.156.

Consider ATCAGCCA, for which the “PBM E-score” value is inactive: -0.094.

In the case of CGTTATAA, the “PBM E-score” value is inactive: 0.0957.

Turning to TCAGGTAA, the “PBM E-score” value is inactive: 0.0914.

Consider AAATGGAC, for which the “PBM E-score” value is inactive: 0.12.

As to AGCAGTTC, the “PBM E-score” value is inactive: -0.0654.

For CTTCGCGA, the “PBM E-score” value was inactive: -0.129.

In the case of CGGTCAGA, the “PBM E-score” value was inactive: -0.035.

As to CGCGTAAC, the “PBM E-score” value was inactive: 0.126.

For TCACTCCA, the “PBM E-score” value is inactive: -0.0552.

For the sequence CAGCGCTC, the “PBM E-score” value is inactive: -0.18.

On to ATTAAAGC, for which the “PBM E-score” value was inactive: 0.0748.

Take ATCGCCGA: the “PBM E-score” value was inactive: -0.113.

As to AGTCCCCA, the “PBM E-score” value is inactive: -0.149.

For TCGGATAA, the “PBM E-score” value is inactive: 0.0568.

AAAAGGGT: the “PBM E-score” value is inactive: -0.0385.

TCTTATAA: the “PBM E-score” value was inactive: 0.125.

For the sequence CATTCGCC, the “PBM E-score” value was inactive: -0.165.

For the sequence AAAGATTT, the “PBM E-score” value is inactive: -0.00222.

On to CCTGACCG, for which the “PBM E-score” value was inactive: -0.201.

On to CTCGGATC, for which the “PBM E-score” value was inactive: -0.0439.

In the case of AACAGACC, the “PBM E-score” value is inactive: 0.103.

Take CAACTCTG: the “PBM E-score” value was inactive: -0.0623.

With CGTTATCC, the “PBM E-score” value was inactive: 0.00298.

As to GCATATAC, the “PBM E-score” value is inactive: 0.0987.

For GTTCAGTA, the “PBM E-score” value is inactive: 0.152.

On to ACGCGGTA, for which the “PBM E-score” value was inactive: -0.0618.

Regarding ATGCCATC, the “PBM E-score” value is inactive: -0.0274.

For AACCCGGA, the “PBM E-score” value is inactive: -0.132.

In the case of ACCTAGCC, the “PBM E-score” value was inactive: -0.179.

For AGGCTGTG, the “PBM E-score” value is inactive: -0.0202.

For the sequence CCGGTGCC, the “PBM E-score” value is inactive: -0.278.

Consider GCTAGAGC, for which the “PBM E-score” value is inactive: -0.0724.

Turning to GAACGCTA, the “PBM E-score” value was inactive: -0.0459.

With GCAGGGAC, the “PBM E-score” value was inactive: -0.161.

In the case of ACGGGCAT, the “PBM E-score” value was at least -0.014.

For the sequence GGGCAAAA, the “PBM E-score” value is inactive: -0.0653.

Take CATAGGCG: the “PBM E-score” value is inactive: -0.00984.

With TACACCTA, the “PBM E-score” value was at least 0.243.

As for CCTTCCAA, the “PBM E-score” value is inactive: -0.0625.

Take GTATAGCA: the “PBM E-score” value is inactive: 0.0731.

With ATTGCTCC, the “PBM E-score” value is inactive: -0.0622.

Consider CAGTCCGG, for which the “PBM E-score” value was inactive: -0.196.

For the sequence CACAACAC, the “PBM E-score” value was inactive: 0.265.

Regarding CTCGGGGC, the “PBM E-score” value was inactive: -0.191.

In the case of AGAATCCC, the “PBM E-score” value is inactive: -0.0157.

Turning to CCCTTTTC, the “PBM E-score” value was inactive: -0.0893.

As for CACAGTAC, the “PBM E-score” value is inactive: 0.131.

For the sequence CTCCATTC, the “PBM E-score” value is inactive: -0.0435.

For AAATCATT, the “PBM E-score” value is inactive: 0.0648.

Turning to CTACGGTC, the “PBM E-score” value was inactive: -0.124.

For the sequence CATGAGTA, the “PBM E-score” value was inactive: 0.15.

In the case of AGGATTCG, the “PBM E-score” value was inactive: -0.0662.
